# Tested on: influenza virus subtypes H1N1, H3N2, H5N1 and H7N9
# Design: species or system mice, cotton rats and ferrets
# Details: in vivo
smiles,measurement,value
"CCOC(=O)C1=C[C@@H](OC(CC)CC)[C@H](NC(C)=O)[C@@H](N)C1 [Tamiflu®, oseltamivir]","symptom reduction compared with Sar^9, Met (O2)^11-Substance P-treated subjects","did not exhibit the symptom reduction produced in the subjects treated with Sar^9, Met (O2)^11-Substance P"
